# Source: the RNAGym collection of RNA variant scans (doi:10.1073/pnas.2313332121)
# This sample is rich in variants without activity.
# B1: TPR 5TU (parent)
# chain: GGAUCUUCUCGAUCUAACAAAAAAGACAAAUCUGCCACAAAGCUUGAGAGCAUCUUCGGAUGCAGAGGCGGCAGCCUUCGGUGGCGCGAUAGCGCCAACGUUCUCAACUAUGACACGCAAAACGCGUGCUCCGUUGAAUGGAGUUUAUCAUG
# Variants of: B1
# Test: polymerase ribozyme fitness, log enrichment relative to wild type (log ratio); higher = more active; in vitro selection for triplet polymerase activity
# Procedure, shortened: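 Mutant libraries for each subunit of a heterodimeric triplet polymerase ribozyme were made by PCR and then transcribed. Each library underwent one round of in vitro selection in triplicate: annealing with a biotinylated primer, the partner subunit and triplets, frozen incubation at −7 °C, gel excision of extended constructs, streptavidin-bead capture and RT-PCR. Input and output libraries were Illumina-sequenced, and only genotypes with ≥10 input reads and ≥1 read per output were kept. Fitness is the logarithm, base 2, of genotype enrichment over wild-type enrichment, computed from inverse-variance-weighted replicate averages.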
row,Variant,polymerase ribozyme fitness (log ratio)
1,C10A A12U U13G G58U C76A G92U C123A,≤ -4.2
2,C10A U13C C18U U55G U56A G94A A138G U151G,≤ -4.2
3,C10A C36U C57G C69A C87U,≤ -4.2
4,C10A U78C U104C,≤ -4.2
5,C10A A21C C114U A119U,≤ -4.2
6,U9G U55G G68C C87A C99U A106G C114G C116U A121U,≤ -4.2
7,C10A G42A C54U A89U G94A U101A C105A C131U U146C,≤ -4.2
8,C10A A19U A22G U77G G83C,≤ -4.2
9,C10A G70A A113U U135G,≤ -4.2
10,C10G A19C,≤ -4.2
11,U9G G84A G117C C129U,≤ -4.2
12,C10A A12C C105G,≤ -4.2
13,C10A U53A C85A C96G G100A U127C U146A,≤ -4.2
14,C10A U45A U82G G84U C87G C95A,≤ -4.2
15,C10A A23C U90C A97U U139G,≤ -4.2
16,C10G A19C A28C A60G G68U U144G,≤ -4.2
17,C10G A19G A37C U56G G84U G100C C114U,≤ -4.2
18,C10A A21C C36U U61A G92A C95U U101G,≤ -4.2
19,C10A A30U G50C C85G C87U G100A U144A U146C,≤ -4.2
20,C10A G25C A30G U31A G74C G83U C118G G143C,≤ -4.2
21,C10A A16C C63U C87U C118U,≤ -4.2

row,Variant,polymerase ribozyme fitness (log ratio)
1,U9G U13G A22C A28U A41C C76U G92A U148A,≤ -4.2
2,C10A A16U G48U G80U C87A A147C,≤ -4.2
3,C10A A22U A39U G48U C85U,≤ -4.2
4,C10A C14U G67A U77A G80U G143C,≤ -4.2
5,C10A U13G C14U C76G C79U A138U G141U,≤ -4.2
6,C10G A16G A17G A19U A23U G48A U53A A97G A98U U101G C149U,≤ -4.2
7,C10A A29U G34A A120G C132G A147C,≤ -4.2
8,C10G A17C G68C A115G,≤ -4.2
9,U9G U33A A41U C54U A66C G83A U102G C103G C123A C125A,≤ -4.2
10,C10G A16C A28U A49U C72A C99G A122U,≤ -4.2
11,C10G A12U A16U A20C C54A,≤ -4.2
12,C10A A30U U77A G92C C118G U146C,≤ -4.2
13,C10G A24G C32A G42U C75A C79A C85G A98C A110U A115U G140C U145G,≤ -4.2
14,C10A C14G A20G G50C G94A C96U C116G A119U,≤ -4.2
15,C10A G68A A91C G92U U111G C132G U148A,≤ -4.2
16,C10A G46C G83A U90A G94U C99G C129U,≤ -4.2
17,C10A A52G U55A G59A C85A A89U,≤ -4.2
18,U9G U44G G50A G141U U146G G152A,≤ -4.2
19,C10G A16C A39C G74A G88U C129A A142C,≤ -4.2
20,C10A A47C A49U U90G G92A G126A U144G,≤ -4.2
21,C10A G46A G62U A64U,≤ -4.2

row,Variant,polymerase ribozyme fitness (log ratio)
1,C10G A12C G94C U135G,≤ -4.2
2,C10A A21U U77G G88A U90G C95G,≤ -4.2
3,C10A A12C G92A C116G C149G,≤ -4.2
4,C10G A16C A26C A73U U101G C116A,≤ -4.2
5,C10G,-2.78
6,C10A,-2.83
7,C10G A17G G48A A52U U78C A91U C95U U135G,≤ -4.2
8,C10A C54G C95A,≤ -4.2
9,C10A C32G C51U U55C A64C C105U C114U G124U,≤ -4.2
10,U9G U55A C96G C116A,-4.14
11,C10A A30U G48U C54U G92U G140A,≤ -4.2
12,C10A A20C A113C,≤ -4.2
13,C10G A24C A30G A66U C79U G86C C114G,≤ -4.2
14,C10A C14U C36U G42A U55G A73U G86U,≤ -4.2
15,C10A G11U C14G A40G G88A G94C A98G A113C,≤ -4.2
16,C10A A12G A17U C32A C96U A110U C116U A147C,≤ -4.2
17,C10A A12U U45A G58U C85U,≤ -4.2
18,C10G A20G G50U G59C C87U,≤ -4.2
19,C10A A12G A19C C85U C118U A119U A121G,≤ -4.2
20,U9G U56G U90G A119U G141U,≤ -4.2
21,C10A A28G A40G A41C U82A U139G,≤ -4.2

row,Variant,polymerase ribozyme fitness (log ratio)
1,C10A C85G G100U U102A C105G A147C,≤ -4.2
2,C10A C63U G92C U101G,≤ -4.2
3,U9G U13G A19U G50C C93A A98C A120C,≤ -4.2
4,C10A A41C A47C U55A C93A C95U A150C,≤ -4.2
5,C10A C54G A73U A120U,≤ -4.2
6,C10G A20U A37C A41C A49G A52G G59C G126A,≤ -4.2
7,C10G A19G A22U G74A G83U C85G,≤ -4.2
8,C10G A22U U45G C79A A91G,≤ -4.2
9,C10A G46A G86U U90G C93G U104A A106G U144A,≤ -4.2
10,C10G A12C A20C A23U A28G A49C A91C U111G G141A,≤ -4.2
11,C10G A12G A39G U53A C79A C87A C131U,≤ -4.2
12,C10A G70C U146C,≤ -4.2
13,U9G U33A G50A,-4.2
14,C10A A12G A60G C93A,≤ -4.2
15,C10G A24G C27A A64G G81A A91U C93U A142U,≤ -4.2
16,C10A U45A C51U A106G G152U,≤ -4.2
17,U9G U44G G50A U82C C95U U139G,≤ -4.2
18,C10G A16U A60G C96G C108U G152A,≤ -4.2
19,C10A U55A C85G,≤ -4.2
20,C10A A41G C85U C149U,≤ -4.2
